Laboratory results: article doi:10.1101/2021.07.03.451002, “Multivalent, asymmetric IL-2-Fc fusions provide optimally enhanced regulatory T cell selectivity” (bioRxiv, 2021)

Target: T1, IL2Rα ectodomain (UniProt P01589 22-240)
T1 construct: IL2Rα (interleukin-2 receptor subunit alpha, CD25) ectodomain; source: purified (Nickel-NTA spin columns)
T1 sequence (looked up): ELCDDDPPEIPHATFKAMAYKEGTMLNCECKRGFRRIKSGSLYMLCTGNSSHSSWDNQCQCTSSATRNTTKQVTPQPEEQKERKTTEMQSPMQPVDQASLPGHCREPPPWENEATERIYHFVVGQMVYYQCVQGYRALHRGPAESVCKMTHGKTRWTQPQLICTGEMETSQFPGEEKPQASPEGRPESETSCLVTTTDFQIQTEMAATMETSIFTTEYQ
Test: BLI; Octet RED384; monomeric biotinylated IL-2/Fc fusions loaded on Streptavidin biosensors at roughly 10% of saturation; IL2Rα from 25 nM to 20 pM; PBS + 0.1% BSA; KD from equilibrium binding
Conditions: both partners purified

binding result: binds
B1: R38Q/H16N IL-2, monomeric biotinylated IL-2/Fc fusion protein (Fc fusion)
chain: not shown
modifications: biotin (BirA enzyme; AviTag)
notes: interleukin-2, human, with R38Q and H16N; IL-2 is joined to the Fc by a (G4S)4 linker; source: Expi293, purified (MabSelect resin), biotinylated with BirA
